Assay results from PubChem BioAssay (NCI).
“And” between values parts separate entries of the source, which are not always exact repeats. Equal values may be shown once.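 All cell lines were grown in 96-well plates and treated with compound for 48 hours. GI50 is the concentration that inhibits growth by half. Definition used: TGI = concentration required for complete inhibition of growth.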

What follows are compounds tested on NCI-H322M lung (assay: NCI anticancer screen, dose series, 48 h).
With O=C(c1ccccc1Cl)n1oc2ccccc2c1=O the TGI was > 100 µM. CCN1c2cc(Br)cc3[nH]c(=O)n(c23)CCC1C (stereo unspecified) was tested, and the TGI was 39.9 µM. In the case of CC(=O)OCC1OC(OC2C(COC(C)=O)OC(Sc3ccccc3C)C(OC(C)=O)C2OC(C)=O)C(OC(C)=O)C(OC(C)=O)C1OC(C)=O (stereo unspecified), the TGI is reported as > 100 µM. In the case of COc1cc(/C=C2\N=C(c3ccccc3)N(c3ccc(C(=O)c4ccccc4)cc3N3C(=O)/C(=C/c4ccc(O)c(OC)c4)N=C3c3ccccc3)C2=O)ccc1O, the TGI is reported as 74 µM. CC(=O)Nc1ccc(-c2nnc(SCC(=O)Nc3cccc(Cl)c3)o2)cc1 was tested, and the TGI was 33.4 µM. CN/C=C(\C(=O)c1ccc(OC)c(OC)c1)c1ccc(OC)cc1 was tested, and the TGI was > 100 µM. CN(C)Cc1cc(C(=O)/C=C/c2ccc(Cl)c(Cl)c2)cc(CN(C)C)c1O was tested, and the TGI was 12.9 µM. For CNC1Cc2c[nH]c3cccc(c23)C12C=C(C)C(=O)O2 (stereo unspecified), the TGI was > 100 µM. CC(=O)O[C@H]1CCN2C(=O)C=CC(OCc3ccccc3)C12 (stereo partly specified) was tested, and the TGI was > 100 µM. With COc1ccc(N2C(=O)C3c4[nH]c5ccccc5c4C4CC(C)(C)CC(C)(C)C4C3C2=O)cc1 (stereo unspecified) the TGI was 45.7 µM. N#Cc1c(NC(=O)c2ccc(F)cc2)sc2c1CCCC2 was tested, and the GI50 was > 25 µM and the TGI was > 25 µM. For O=C(Cc1ccccc1)NN1C(=O)/C(=C\c2cccc([N+](=O)[O-])c2)SC1=Nc1ccccc1, the TGI was > 100 µM. With O=S1(=O)c2ccccc2C(Nc2ccccc2)N1c1ccccc1 (stereo unspecified) the TGI was > 100 µM. In the case of O=C(/C=C/c1ccccc1O)c1ccc([N+](=O)[O-])cc1, the TGI is reported as 50.8 µM. Compound COc1ccc(C(=NN=C(N)N)c2ccc(OC)cc2)cc1 has a GI50 of 2.9 µM and a TGI of 13 µM. In the case of NC(CCOCCP(=O)(O)CCC1C=CC=CC1)C(=O)O (stereo unspecified), the TGI is reported as > 100 µM. For COc1cc2cc(C(=O)N3CC(CCl)c4ccc([N+](=O)[O-])cc43)[nH]c2c(OC)c1OC (stereo unspecified), the TGI was > 100 µM. O=C1C=CC(=C(c2ccccc2)c2ccc(O)cc2)C=C1 showed a TGI of 30.9 µM. For O=[N+]([O-])c1ccc(N/N=C2/CC3=C2CCCCCCCCCC3)c([N+](=O)[O-])c1, the TGI was > 100 µM. With CCCCCCCCCCCCCC1=C(O)C(=O)C(CC2=C(O)C(=O)C(CCCCCCCCCCCCC)=C(O)C2=O)=C(O)C1=O the TGI was > 100 µM. O=C1OC(C2Cc3ccc4c(c3C2=O)CCC4)c2ccccc21 (stereo unspecified) was tested, and the TGI was > 100 µM. COc1ccccc1C(=O)NO was tested, and the TGI was > 100 µM. For O=[N+]([O-])c1ccc(C(Cl)C(Cl)c2ccc(C(Cl)C(Cl)c3ccc([N+](=O)[O-])cc3[N+](=O)[O-])cc2)c([N+](=O)[O-])c1 (stereo unspecified), the GI50 was 0.979 µM and the TGI was > 62 µM and 6.6 µM. In the case of O=C(O)CC(NC(=O)/C(=C/c1ccccc1)NC(=O)c1ccccc1)C(=O)O (stereo unspecified), the TGI is reported as > 100 µM. For CC[C@@]1(O)C(=O)OCc2c1cc1n(c2=O)Cc2cc3ccccc3nc2-1, the GI50 was 0.0698 µM and the TGI was 3.57 µM. In the case of CSc1ccc2c(cc1=O)[C@@H](NC(=O)c1ccc(Cl)cc1)CCc1cc(O)c(O)c(O)c1-2, the TGI is reported as > 100 µM. In the case of CC1=C(C)C(=O)O[C@@H]([C@](C)(O)[C@]2(O)CC[C@@]3(O)[C@@H]4C[C@H](O)[C@]5(O)[C@@H](O)C=CC(=O)[C@]5(C)[C@H]4CC[C@]23C)C1, the TGI is reported as > 100 µM. In the case of CCc1n[nH]c(=O)n1/N=C(\C)c1ccc([N+](=O)[O-])cc1, the TGI is reported as > 100 µM. With CCOC(=O)CC1(Cc2ccc(OCc3ccccc3)cc2)C(=O)OC(c2ccccc2)N1C(=O)c1ccccc1 (stereo unspecified) the TGI was > 100 µM. O=c1c2ccccc2c(/C=N\NC2=NCCN2)c2oc3ccccc3n12 was tested, and the GI50 was 28.2 µM and the TGI was 86.3 µM. In the case of Cn1c2c(c3ccccc31)CCN(CCCCN1CCN(c3ccccc3)CC1)C2=O, the TGI is reported as > 100 µM. In the case of O=c1cnnc(N/N=C/c2ccccc2O)[nH]1, the GI50 is reported as 1.91 µM and the TGI is reported as > 100 µM. COc1ccc2c(=O)cc(-c3ccc(OC)c(OC)c3OC)oc2c1 was tested, and the TGI was > 100 µM. With CC(c1ccc2c(c1)CCC1C2CC2OC23CC=CC(=O)[C@]13C)C1C[C@]2(C)O[C@]2(C)[C@H](O)O1 (stereo partly specified) the TGI was > 100 µM. In the case of CC(C)[C@@](O)(c1ccc2cc(OC(F)F)c(OC(F)F)cc2c1)c1cn[nH]n1, the GI50 is reported as 21.8 µM and the TGI is reported as 60 µM. With N#Cc1ccc(-c2nc3c(N)nc(-c4ccccc4)nc3o2)cc1 the TGI was > 100 µM. CC(=O)OCC1OC(c2c(OC(C)=O)cc(C)c3c(=O)cc(/C(C(C)=O)=C(\C)O)oc23)C(OC(C)=O)C(OC(C)=O)C1OC(C)=O (stereo unspecified) was tested, and the TGI was > 100 µM. With CC(=O)NC(Cc1ccccc1)NC(=O)O (stereo unspecified) the TGI was > 100 µM. COc1ccc(C2ON(c3ccccc3)CC=C2C)cc1 (stereo unspecified) was tested, and the TGI was > 100 µM. Clc1cc(Cl)c(OCCCCCCN2CCNCC2)c(Cl)c1 was tested, and the GI50 was 2.88 µM and the TGI was 9.26 µM. In the case of COc1ccc2nc3c([N+](=O)[O-])ccc4c3c(c2c1)NCCN4CCN(C)C, the TGI is reported as 1.89 µM. For COc1cc(C2OC(N)=C(C#N)C3=C2C(C)CCC3)cc(OC)c1OC (stereo unspecified), the TGI was > 100 µM. With C=C1C[C@@H]2O[C@H]3[C@H]4[C@@H](C[C@@H](C)[C@@H](OC(C)=O)[C@H]42)[C@@H](C)CO[C@@]3(C)[C@H](OC(=O)CCCCCCC)C[C@H]1O the TGI was 33.1 µM. In the case of O=c1[nH]c(N/N=C\C(=N/Nc2nc3ccccc3c(=O)[nH]2)C(O)C(O)C(O)CO)nc2ccccc12 (stereo unspecified), the TGI is reported as > 100 µM. In the case of CCCC1CC(=O)NC(=O)C1C(=O)OC(C)(C)C (stereo unspecified), the TGI is reported as > 100 µM. With CC(C)(C)CC(C)(C)c1ccc(O)c(Cc2ccc(Cl)cc2Cl)c1 the GI50 was 1.64 µM and the TGI was 3 µM. Cc1ccc(Cc2nn(C)c(=O)n2N)cc1 was tested, and the TGI was > 100 µM. With c1ccncc1 the TGI was > 100 µM. S=c1c2[nH]cnc2ncn1CCSC1=NC=NC2=NC=NC21 (stereo unspecified) was tested, and the TGI was > 100 µM. For CC(=O)Nc1cccc(N2C(=O)/C(=C\c3cccc(Oc4ccccc4)c3)S(=O)(=O)C2c2ccccc2)c1 (stereo unspecified), the TGI was > 100 µM. In the case of C=CC(=O)N1C[C@@H]2CCOc3c(Cl)c(-c4c(O)cccc4F)c(F)c4ncnc(c34)N2C[C@H]1C, the GI50 is reported as 14.2 µM and the TGI is reported as 31.2 µM.
